Hit rate of the full screen: of about 4,800 compounds, about 420 (8.8%) showed an effect of 50% or more. Some of the results follow.
Each molecule was assayed on Plasmodium falciparum (assay: Confirmatory screen in NF54 nanoGlo assay, in single point, at 2uM, 72h). Conditions: timepoint 72 hour.
Assay type: functional, Erythrocyte

Structure (SMILES) | % Inhibition [%]
COc1ccccc1CNCCNC(=O)c1ccncc1 | 8
O=S(=O)(c1ccc(F)c(Cl)c1)N1CC[C@H](Oc2ccncc2Cl)C1 | 75
Nc1ccccc1-c1nc(Nc2ncccn2)n[nH]1 | 2
CC(=O)c1ccc(S(=O)(=O)N2CCC(C)(C(=O)NCc3ccc4c(c3)OCO4)CC2)cc1 | 0
O=C(Nc1ccc(F)cc1F)[C@@H]1CCCN1C(=O)c1ccco1 | -1
CN(C)c1ccc(-c2nc([C@H]3CCOC3)cs2)cc1 | 6
O=C(CNC(=O)c1ccc(Br)cc1)NC1CCCC1O (configuration not stated) | -10
CC(C)C(=O)NCC(=O)Nc1ccc(C(F)(F)F)cc1 | -15
CC[C@H](C)N(CCC(=O)N1CCOCC1)C(=O)c1cc2n(n1)CCCN(Cc1ccccc1)C2=O | 1
CCn1nc(-n2cnnc2)c(NS(=O)(=O)c2cccc(Cl)c2)c1C | -12
CCCCC12CN(S(=O)(=O)c3ccccc3)CC(C)(CN(S(=O)(=O)c3ccccc3)C1)C2=O | -5
CC1CCCCC1NC(=O)N1CCCC2(CC=CCC2)C1 (configuration not stated) | 1
Cc1ccccc1Cc1nnc2n1CCOC2 | -4
Cc1nn(CC2CC2)c(=O)n1-c1ccc(F)cc1 | -16
CC(C)C[C@H]1C(=O)NCCN1Cc1ncc(-c2ccccc2)o1 | -5
CO[C@H]1CCOC2(CCN(C(=O)c3ccccc3F)CC2)C1 | -5
C[C@H](C#N)CNc1ncc(Br)cn1 | 1
Cc1noc(OCCc2ccccc2)n1 | 7
COc1ccc(-c2cc(C[C@H]3CNCC[C@H]3CC(=O)Nc3ccccc3)no2)cc1 | -7
Brc1cc(Br)c2nc(-c3cnccn3)ccc2c1 | 4
Cc1ccc(C(=O)N(C(=O)c2ccc(C)cc2C)c2ccc(Br)cn2)c(C)c1 | -15
Cn1cc(C(=O)c2nc(-c3ccccc3Cl)no2)cn1 | -6
Cc1ccccc1[C@H]1CC(=O)Nc2c1c(C)nn2-c1nncc(-c2ccc(Cl)cc2)n1 | 16
Cc1noc(CCNC(=O)N2CCCCC[C@H]2c2ccc(C)o2)n1 | -5
COCc1ccc(C(=O)N(c2ccc(F)cn2)C2CCOCC2)cc1 | -8
Clc1ccc(OCCNCCOc2ccc(Cl)cc2Cl)c(Cl)c1 | 1

Structure (SMILES) | % Inhibition [%]
CCOc1cc(N2CCOCC2)c(OCC)cc1NC(=O)c1ccc(C)c(NC(=O)c2ccco2)c1 | 22
O=C1c2ccccc2N[C@]2(C(=O)Nc3ccccc32)N1c1ccc2c(c1)OCO2 | -6
Oc1ccc(-c2nc(-c3c[nH]c4ccccc34)cs2)cc1 | 12
CN1C2(c3ccccc3)C3C(=O)N(c4ccccc4)C(=O)C3C1(c1ccccc1)C1C(=O)N(c3ccccc3)C(=O)C12 (configuration not stated) | 2
COc1nc(C)nc2c(CN(C)C)c(C)[nH]c12 | -1
Cc1noc(-c2ccc(C(C)(C)C)cc2)c1C(=O)NCCOc1ccccc1 | 11
Cc1noc(C)c1S(=O)(=O)Nc1cc(-c2nnc3n2CCCCC3)c(F)cc1F | 1
COc1ccc2c(O)cc(-c3ccccc3)nc2c1 | -2
O=C(NC[C@H]1CCS(=O)(=O)C1)c1ccc2[nH]c3c(c2c1)CCCC3 | -6
CCOc1cc(-c2nn3c([C@H]4CCCN(C)C4)nnc3s2)cc(OCC)c1OCC | -6
CC1CC(Nc2ncnc3cc(Br)ccc23)CCN1C (configuration not stated) | 96
O=C(NC1CCCC1)N1CCN(S(=O)(=O)c2cccc(F)c2)CC1 | -10
CCN(C(=O)CCn1cnc2ccccc2c1=O)c1ccc2[nH]ccc2c1 | 0
CC1CC(N)CCN1C(=O)c1cccc(-c2noc(C3CC3)n2)c1 (configuration not stated) | 2
Cc1ccccc1S(=O)(=O)N1CCN(c2c(C)n(-c3ccccc3)c(=O)n(C)c2=O)CC1 | 1
COc1ccccc1CNC(=O)c1cnn2c(-c3ccc(Cl)cc3)ccnc12 | -4
C1CN(c2nc3nonc3nc2N2CCOCC2)CCO1 | -14
C[C@@H](Cn1cc(Br)cn1)c1nnc(Nc2ccn(Cc3c(F)cccc3Cl)n2)s1 | 2
Cc1cc(C)n(Cc2csc(C3CCCCC3)n2)n1 | -10
Cc1cc(C)cc([C@@H](O)CNC(=O)NCC(C)(C)c2ccncc2)c1 | 1
CC(=O)N(c1ccccc1)[C@H]1C[C@@H](C)N(C(=O)C(F)(F)F)c2ccccc21 | 9
O=C(Nc1ccc2c(c1)OCO2)c1c(-c2ccc(Cl)cc2)nc2n1CCS2(=O)=O | -1
Cc1cnccc1NCCNC1CCN(c2ccc(Cl)cc2)CC1 | 99
COc1ccccc1N1CCN(c2nc(Nc3ccc(F)cc3)c3nc[nH]c3n2)CC1 | -18
CN(C(=O)c1ccc(OCC(F)(F)F)nc1)C1(C#N)CCC1 | 2
CC1=NN(c2nc(C)cc(O)n2)C(=O)C1 | -15

Structure (SMILES) | % Inhibition [%]
CN1N=C(C(=O)NC2CCC3CCCCC3C2)CCC1=O (configuration not stated) | -11
O=S(=O)(c1ccc(F)cc1)n1ccc(-c2cccc(OCc3ccc(Cl)cc3Cl)c2)n1 | -4
Cc1ccc(NC(=O)CN2CCC3(CC2)NC(c2ccc(OC(F)(F)F)cc2)=NO3)c(C)c1 | -5
CC1C(Cc2ccccc2)CCN1C(=O)c1cnc(C(F)(F)F)nc1 (configuration not stated) | -1
CN1CCN(S(=O)(=O)c2ccc(F)c(F)c2)C[C@H]1c1ccccc1 | 5
Cc1nc(CNC(=O)Nc2ccc(Br)c(C)n2)no1 | 8
COc1ccc(CNc2ncc(-c3ccc(C)c(C)c3)n2C)cc1OCc1ccccc1 | -11
O=C(CNc1ccccc1N1CCCCC1)NC1CCCCCC1 | -7
OC(CC1COCCN1)c1ccccc1 (configuration not stated) | 3
c1ccc(-c2cn(-c3ccccc3)c3ncnc(N4CCCC4)c23)cc1 | 8
O=C(Nc1nc2ccccc2[nH]1)C1CCN(c2cc3c(nn2)CCC3)CC1 | 5
Cc1ccc(-c2nn3c([C@H]4CCCN(C)C4)nnc3s2)cc1C | -6
CC(C)CCO[C@@H](C)C(=O)NC1CCN(CC(=O)NC(C)C)CC1 | 8
O=C(CN1CCC2(CC1)NC(=O)N(Cc1ccc(Cl)cc1)C2=O)Nc1ccc(F)cc1F | -1
COc1ccc(S(=O)(=O)n2[nH]c(=O)c(CCO)c2C)cc1 | -3
Cn1cc(-c2ccc(F)cc2)c2nc[nH]c(=O)c21 | 3
Cc1ccc(S(=O)(=O)c2c(NS(=O)(=O)c3ccccc3)n(CCc3ccccc3)c3nc4ccccc4nc23)cc1 | 100
COc1cc(-c2nc(-c3ccc(F)cc3)c(-c3ccc(F)cc3)[nH]2)cc2c1OCO2 | 5
CN(C)/C=C/c1c(C#N)c(=O)ncn1Cc1ccccc1 | 2
O=C(C[C@H]1CCN(S(=O)(=O)c2ccc(F)c(F)c2)C1)NCc1ccccc1 | -13
O=C(C[C@H]1CCN(C(=O)c2ccoc2)C1)NC1CC1 | -13
COc1ccc(CCNC(=O)c2cc3n(n2)CCN(Cc2cccc(F)c2)C3=O)cc1OC | 17
C#CCOc1ccc2ccccc2c1[C@@H]1NC(=O)c2cccnc2N1 | 2
O=C(N[C@H](c1ccccc1)C1CCC1)N1CCOC2(CCC2)C1 | 0
Cc1cc[n+]2c(-c3ccccc3)cc(-c3ccccc3)nc2c1 | 62
O=C1c2ccccc2C(=O)N1Cc1cnc(N2CCCCC2)s1 | -5

Structure (SMILES) | % Inhibition [%]
Cc1cccc(NC(=O)NCCn2nnc3cc(S(=O)(=O)N4CCCC4)ccc32)c1C | -1
C=CCN=C(NCc1nccn1C)NC1CCC(C)CC1 (configuration not stated) | -9
O=C(O)[C@@H]1CCCN1c1ncc(C(F)(F)F)cc1Cl | -3
O=C(Nc1c(S(=O)(=O)c2ccccc2)c2nc3ccccc3nc2n1CCc1ccccc1)c1ccc(Cl)cc1 | 102
CCOc1cc(=O)c(C(=O)N2CCC(C)CC2)nn1-c1cc(OC)cc(OC)c1 | -2
Cc1ccc(C)c(-c2nc(Cn3c(=O)c4c(C)cc(C)nc4n(C)c3=O)c(C)o2)c1 | -2
Cc1nnc(NC(=O)C(C)(C)S(=O)(=O)C2CC2)n1C1CC1 | -3
CC(C)[C@H](NC(=O)NCCc1ncnn1C)c1ccccc1Cl | 4
COc1c(Cl)cc(Cl)cc1CNC(C)C | 4
Cc1cc(CNC(=O)Nc2cnn(-c3ncccc3C#N)c2)n(C)n1 | 1
Oc1nc(N2CCOC3(CCCC3)C2)ncc1F | 51
CN(Cc1ccn(C)n1)C(=O)c1cc(S(=O)(=O)N(C)C)c(Cl)cc1Cl | 2
COC(=O)[C@@H]1C[C@H](O)CCN1C(=O)OC(C)(C)C | -2
CNc1nc(NCc2ccccc2)nc2ccccc12 | 78
COc1ccc(O)c([C@H]2Nc3ccccc3-n3c(-c4ccc(C)cc4)c4c(=O)n(C)c(=O)n(C)c4c32)c1 | 25
Cc1ccc(S(=O)(=O)N(CC(=O)NC2CCN(C)CC2)c2cccc(Cl)c2)cc1 | -7
O=C(CCc1ccc(F)cc1)Nc1nccc(-c2ccco2)n1 | 1
CN(Cc1ccncc1)Cc1ccc2c(c1)CCO2 | -11
Cc1ccc(-c2ccc(=O)n(CCC(=O)N3CCN(C4CCCCC4)CC3)n2)cc1 | -4
O=C(Cc1cnn(-c2ccccc2)c1)Nc1ccc2[nH]c(=O)[nH]c2c1 | 4
Cc1nn(C)c2c(N3CCOCC3)nc(C3CC3)nc12 | -8
Cn1nccc1/C=C1\CC2C3CCc4cc(O)ccc4C3CCC2(C)C1O (configuration not stated) | 37
CC(=O)c1ccc(N2CCN(C(=O)c3nn[nH]c3Nc3ccc(C)c(C)c3)CC2)cc1 | 2
O=C(Nc1ccccc1OC[C@H]1CCCCO1)N1CCOCC1 | 9
